In all, about 4,000 sequences were measured (“arbitrary fluorescence units”: median about 830, highest 2% from about 6,500 on). The list lacks most of the strong results.
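Further: Full-length recombinant human RUNX1 bound to double-stranded DNA microarray spots, detected with an Alexa488-labelled secondary antibody after the anti-RUNX1 primary, read as scanned spot fluorescence.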

This test addresses RUNX1 (UniProt Q01196). Briefly: RUNX1 binding intensity (PBM fluorescence), RUNX1 alone (arbitrary fluorescence units); higher = stronger binding. The conditions noted are these: RUNX1 concentration 2 nM; ETS1 concentration 0 nM. Here is the method: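 gcPBM on 36-bp genomic-derived probes (partner site mutated) containing one RUNX1 site and no ETS1 site. Recombinant human RUNX1 (2 nM) was incubated alone or with ETS1 (25 nM) and detected by anti-RUNX1 antibody fluorescence. Values are medians over 4 replicate spots (not normalised). The probes sit in constant array flanks that are not printed.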
Chain of UniProt Q01196 (Q01196 whole entry): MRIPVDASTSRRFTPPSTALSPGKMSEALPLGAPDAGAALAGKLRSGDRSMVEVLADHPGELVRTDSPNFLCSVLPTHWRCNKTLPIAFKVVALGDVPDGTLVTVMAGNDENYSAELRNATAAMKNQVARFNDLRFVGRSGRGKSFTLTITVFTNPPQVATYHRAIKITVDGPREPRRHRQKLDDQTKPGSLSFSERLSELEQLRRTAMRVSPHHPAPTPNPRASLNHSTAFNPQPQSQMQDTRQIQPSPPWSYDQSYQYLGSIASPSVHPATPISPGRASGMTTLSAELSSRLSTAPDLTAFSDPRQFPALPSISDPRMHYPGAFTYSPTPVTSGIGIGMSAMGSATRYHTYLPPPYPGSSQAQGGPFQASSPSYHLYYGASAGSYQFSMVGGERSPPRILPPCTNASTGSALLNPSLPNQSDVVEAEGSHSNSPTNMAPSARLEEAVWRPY
GGGACCGCAGTCCCGGGGAGCGCACCGAAAGTTCTC showed an RUNX1 binding intensity of 788.
To ACAGATGGTCCGACACTTCAGAAAACCACTCATTGT belongs 845; to AAGTTCGCAACCGCCAAGAGGGGAGACGGGCTGCGC, 764; to AGCTGGTTAGCCTGATAGAATGTGGGTGCCGAGGGC, 745.
To TAGAAAAGGCAGCAGGGTAGGTGTGGTATCTGGGTC belongs 663.
To TAAACTGGACCGCGAAGGGAATAGCCTGAACCCGCC belongs 661; to GCGCGGCTCATGAAGCGACGCGGTTCAGGGAGCGAA, 747; to GCGCCAACCGCGCGGCCGCGCTTGCCTTTTCAGGTG, 886.
In turn, AGCCAGAACCGCGCCCGGGCCGCGCAAGGAAGACTC yielded an RUNX1 binding intensity of 824.
The result for GAGGGTGAGCGGTCAAGAGACCTCCAGCAAGAGCGG reads 707; that for TTGTGGTTCGGGCGTGTCGCGGAGCCCGTATGTAAT, 756.
To GGAGGTGGGGAGGACGTTCTGAAACCACACACATTT belongs 867; to CTGGCTCCCATTCCTGCTGTGGTGAGGGCTTCCCTC, 859.
The result for AGCACCACATTCTACACCTCCAGCTCATGCTGCGTC reads 990; that for GTGTGGTCAAAGTAAAAGCTCAGTGTCTCCGTGTTC, 827.
The sequence CTTCTACTTGCTGCCCCGCCCCCAGCTGTGGTCACA displayed an RUNX1 binding intensity of 1270.
To TGGGGAGCAGCAAGCTGGGGGCGGTTGTGGAGGGAC belongs 797; to TCAGCTGTGGTGGGAGGATCTCCTATCAGGCTGGCT, 666; to GCAAACTGAAGAGAGGAACGAAGGCCGCAGAGCTTG, 734.
To CGTCCCCGCAAAGCCGCGGCAGAAACTCCCGGCGGT belongs 1270.
The result for TGGGACCGCTAATCGGAGAGGGTGCGCAAACGCTGG reads 658; that for GGCTAGCCTCCGATTCCCAGAGCCCCACAGCCGGGG, 851.
In turn, TGCAGAGCAGGCACCGCGGCACTTCGGCGAGCGCCG had an RUNX1 binding intensity of 674.
The result for ACAGGCAGCTGCGGCCGCCCGGCCTCCTCTCCCGCC reads 829; that for ACGCCGCGCATACGCGCTTTACGGCGGCCGCAAAAT, 801.
The result for ATTTCAGTTGAAACCACTGTTCTTCATGTTTCTCTG reads 944; that for GCTGCAAGGCCGAAGCAGCGCGGTCGGACGGGCATG, 728.
In the case of GAGTGGGCGGTAACTCGCAGGCCGAACGTGACGCAA, the RUNX1 binding intensity was found to be 740.
To GAGGGCTGTTGTGGTTAGGACGGCTTGCTGGGTGGG belongs 4480; to GGCGGGTACTGCGGCCCGCCCCACTTTCGGTTGTTG, 745.
To GGAGCGGCGCGGTACTACTGGGGACGTCGGCGGCTG belongs 669; to TGACCTCCTCTGAGGCAGCAAGCTGCGGTGAAGTCT, 691; to GCCATCCAGGCAGTACAGACTCCCTGACCGCACTGA, 1110.
Take CTGCACAGGGAATTGAGTGTCGAGCTCACCGCACCG: the RUNX1 binding intensity was 729.
To ACTGCGGGCTACCTCCCCCACACCACTGCCGCCAAG belongs 1100; to CAGGATCTGCTGCGGGCCCGCCTTCGGTCCCCGGCC, 787.
The result for CTAGCAGCCTCCGAGGGGGCTGCGGCCGGAGCGAGT reads 735; that for AGAAGCCCCGAATGGACGCGAAAGTGACCACGCGAA, 717; that for GAAGATGCTGTGGTTGCATAGAGGAGGACATGAATC, 914.
The result for TCAGCAAGTGGTGTGACCAGCATGTGAACCGCGGCA reads 659; that for CCGGGCGCCACTTTCGGTCCCCGTGGTCACGTGACC, 901; that for CCCTCGCGCGGTCAGAGCGGCGCCGCGGAGGCGCAG, 791.
On to CTTCGGCCTTGCGTGATGGAAACCACCTCCTCTACA, for which the RUNX1 binding intensity is 1150.
For the sequence AACAGAGTGGGTTGTAAGGGACTGCCTGTGCATATA, the RUNX1 binding intensity was determined as 792.
The result for TGCCGCCCGCAGCACCCTCCCCATTGCCTGGCTGTA reads 1040; that for CTCCCACCTCCGAAGCGGCGCAACCCACAACAGCCT, 1090; that for AAAGCCAACCACAACATGAAGGGGAGGTACACAATA, 1390.
To AGCACTCTGACCGCATGCAAAGGGAGTTCCTTTCGC belongs 2800; to CTGGAGAGGAGGTGGCCCCAGTGTGGTTCTGTAACT, 758.
To TCCAACACAACCACAGCCCCCGTGCCGTAAGCTGTT belongs 1050; to AATGCTGTGGTTTCAGCCACAGCACCCGGCGAAGGT, 1170; to GTCACACTGTGGTTTTACACGGCAGCTCAGGTTGCC, 1780.
TTTCTGACTTGCTGTGTGCTTCAGAAACCTCAATGA: the RUNX1 binding intensity is 824.
The result for TCCAAGGCGCAAAAAACCCGCCCTAAACCGCACCCC reads 1630; that for TGCGCCGCTTCAGCTGCCCGAGGAAGAGCCGCAGTC, 701; that for GACTGAGATTGCCTGCCAGCAACCACATGGCTTGTC, 832.
For GCGGAATTGTGGCGGGAGGGGGAGGAGGAGGTCAGG, the RUNX1 binding intensity was found to be 1070.
To TGAGGAATGTTTTACTGGGGCTGTGGGGCCAGGGTG belongs 643.
In turn, GAGGGGGAGGTTTTCGGGGCCTGTGGTTACTACACT displayed an RUNX1 binding intensity of 1100.
In the case of GGAGCAGCAAGCGTCGCCGGGGGGCCCACAAGGGTA, the RUNX1 binding intensity was 649.
ATGACTTCGAGGAGGTCTTCAGAAACCACAGGCTGA showed an RUNX1 binding intensity of 822.
The result for GCATGTTTTACTGTGGAAGCGGCCCACAAAACCTGC reads 799; that for CTAGCTCCGCCCCGCAAGAAGGACTTTCGCGTCCTC, 808.
To GCCGCCGCCGCAGGCCCCAGACCGAAAGTGAATGCC belongs 1050; to AACAGATCCTTCATGGCCCCCACTAGCCACAGGTTT, 930; to TAAGAGGAGACCTCAAACCAGAACCCTTCATGGCAG, 715.
The result for CAGTCAAGAGGCAATTATAAACCACTGCCTCTTTGA reads 843.
Consider TTTACAGGCAATATCCAGAACAGGTAAACCCACAGA, for which the RUNX1 binding intensity was found to be 820.
ACAGAGCAGCAAGCAGCCCTCACCACAGATGAAGCA had an RUNX1 binding intensity of 740.
Regarding GTGCGGACCGCGGGGAGCAAGCGCCCGCCGTAAGCA, the RUNX1 binding intensity came to 688.
The result for CCTTGCCTGCGGGCTTTCTGGTCTCCGAATGGAGGC reads 714; that for TTACCCCATGAAAAGCCTCCTCACCGCAGTGACCAG, 1120.
In turn, GAACCCCAAGTTCCAGCTGGCACTGCGGCGGAGCCT returned an RUNX1 binding intensity of 678.
For GACTGGATACAAGAATTCCGCGGACTGCCGCAGTCG, the RUNX1 binding intensity was determined as 684.
To TGGGGTGTCCGAGCCGCCCCCGAACCGCGCACCCGA belongs 796.
To ACAGTCGCACCGTAAGCTGCCCGCGGTGTTGACACA belongs 722; to TGTTGGAAACCACAGGGCCCGGTGGATAGCCGTCAC, 1360.
TTTTCCCACCTCCTAGGTTGTGGTGGGGATTACACA: the RUNX1 binding intensity was found to be 797.
To GCGGCACACCGCGACTGCTAATTAGCCCGGGAGCTG belongs 726; to TTCCATTGCGGGCTCCCAACAGTACCCTTCGTCCCT, 1040.

Values taken from the supplement of paper PMC10681739.
